This note sets out measurements from the BET-seq Pho4 binding data (Le et al. 2018).

The list shows a part of the results. These are noisy estimates, calculated here from bound and input reads.

The target in this test is T1, Pho4 (S. cerevisiae) (UniProt P07270).
T1 sequence: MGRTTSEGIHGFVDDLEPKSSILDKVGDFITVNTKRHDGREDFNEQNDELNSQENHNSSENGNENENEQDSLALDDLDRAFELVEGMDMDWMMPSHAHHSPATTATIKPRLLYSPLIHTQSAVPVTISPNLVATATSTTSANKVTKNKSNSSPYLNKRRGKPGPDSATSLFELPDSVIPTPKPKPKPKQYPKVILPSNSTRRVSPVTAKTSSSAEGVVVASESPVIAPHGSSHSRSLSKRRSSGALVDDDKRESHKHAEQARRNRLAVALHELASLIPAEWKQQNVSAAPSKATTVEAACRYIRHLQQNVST
Briefly: relative binding free energy (BET-seq); higher = weaker binding. The settings on record: reference: library average.
Take GCGTGCACGTGGGTAC: the “relative binding free energy” value was -0.14 kcal/mol.

Regarding TTATGCACGTGTTTTC, the “relative binding free energy” value was 0 kcal/mol.

Take GGGTTCACGTGTTCGA: the “relative binding free energy” value was found to be 0.31 kcal/mol.

For ATGCGCACGTGAGGAG, the “relative binding free energy” value was -0.05 kcal/mol.

As for TATTTCACGTGGGACA, the “relative binding free energy” value stood at 0.16 kcal/mol.

Turning to GTTCGCACGTGGGTTG, the “relative binding free energy” value was -0.09 kcal/mol.

Take ATGGGCACGTGTCTTT: the “relative binding free energy” value was -0.13 kcal/mol.

As to GTTTACACGTGGAGCT, the “relative binding free energy” value came out at 0.19 kcal/mol.

For the sequence ATATACACGTGTGATG, the “relative binding free energy” value came to 0.07 kcal/mol.

With TTTTCCACGTGGTGGG, the “relative binding free energy” value worked out at 0.02 kcal/mol.

In the case of GGTGGCACGTGTCTGG, the “relative binding free energy” value worked out at 0.02 kcal/mol.

With GCGGTCACGTGTAAGT, the “relative binding free energy” value was 0.34 kcal/mol.

Turning to AAGGCCACGTGGGTGA, the “relative binding free energy” value is -0.2 kcal/mol.

CGTTGCACGTGGGAGA: the “relative binding free energy” value was -0.05 kcal/mol.

As for GTGTACACGTGAGTTG, the “relative binding free energy” value was found to be 0.27 kcal/mol.

Consider ACGTCCACGTGGTGGG, for which the “relative binding free energy” value was -0.07 kcal/mol.

In the case of GGCCGCACGTGTTGGG, the “relative binding free energy” value came to 0.05 kcal/mol.

For the sequence TCTGGCACGTGGTGAA, the “relative binding free energy” value was -0.12 kcal/mol.

As to GGAGTCACGTGGGTCT, the “relative binding free energy” value is -0.04 kcal/mol.

GATAACACGTGGAGTG: the “relative binding free energy” value is -0.05 kcal/mol.

With TCAGTCACGTGGGCAG, the “relative binding free energy” value was -0.04 kcal/mol.

For TTATTCACGTGTGAAG, the “relative binding free energy” value was 0.3 kcal/mol.

As to TTAGTCACGTGACATG, the “relative binding free energy” value was 0.3 kcal/mol.

For the sequence TATTTCACGTGCTTGA, the “relative binding free energy” value came out at 0.18 kcal/mol.

As to TGTGACACGTGCGGCT, the “relative binding free energy” value is -0.08 kcal/mol.

For the sequence TGTTTCACGTGGTTGT, the “relative binding free energy” value was 0.24 kcal/mol.

For CATGGCACGTGTGGGC, the “relative binding free energy” value was -0.17 kcal/mol.

Consider ATTGACACGTGTTTGA, for which the “relative binding free energy” value is -0.02 kcal/mol.

For TGCTCCACGTGAGGGT, the “relative binding free energy” value was determined as 0.2 kcal/mol.

CATTGCACGTGGGTTC: the “relative binding free energy” value was -0.04 kcal/mol.

Take GGTACCACGTGGTATG: the “relative binding free energy” value was -0.06 kcal/mol.

In the case of TTAGTCACGTGTGACT, the “relative binding free energy” value was determined as 0.08 kcal/mol.

In the case of AGGGCCACGTGTTGAG, the “relative binding free energy” value was -0.06 kcal/mol.

TGACACACGTGGTTTT: the “relative binding free energy” value was found to be 0.04 kcal/mol.

With GTCTACACGTGGGTAG, the “relative binding free energy” value is -0.05 kcal/mol.

TATTGCACGTGAGGGC: the “relative binding free energy” value was determined as 0.11 kcal/mol.

Take TAGTGCACGTGGATCA: the “relative binding free energy” value was -0.02 kcal/mol.

Take TAATGCACGTGACTTG: the “relative binding free energy” value worked out at 0.18 kcal/mol.

For GCTAGCACGTGGTTTG, the “relative binding free energy” value was -0.09 kcal/mol.

Regarding GGGTTCACGTGGTAGT, the “relative binding free energy” value worked out at 0.36 kcal/mol.

As for TTCATCACGTGGAAGG, the “relative binding free energy” value was determined as 0.23 kcal/mol.

As to TGTGGCACGTGAGACT, the “relative binding free energy” value was found to be 0.16 kcal/mol.

As to GATTGCACGTGGAGTA, the “relative binding free energy” value turned out to be 0.04 kcal/mol.

In the case of ATCTGCACGTGTATTT, the “relative binding free energy” value is -0.03 kcal/mol.

As to AGTGTCACGTGACCGT, the “relative binding free energy” value is 0.24 kcal/mol.

For TGATACACGTGTGTGC, the “relative binding free energy” value came to 0.01 kcal/mol.

With TAAGACACGTGTTAGT, the “relative binding free energy” value worked out at 0.06 kcal/mol.

In the case of TGGGGCACGTGAAGGG, the “relative binding free energy” value worked out at 0.15 kcal/mol.

Turning to TTCGTCACGTGGTTGT, the “relative binding free energy” value is 0.07 kcal/mol.

For AGAGTCACGTGCGTTT, the “relative binding free energy” value worked out at 0.1 kcal/mol.

In the case of CGTTTCACGTGTGGCG, the “relative binding free energy” value stood at 0.06 kcal/mol.

Turning to AAGTTCACGTGAGGTC, the “relative binding free energy” value was 0.46 kcal/mol.

In the case of AATGGCACGTGCGGTA, the “relative binding free energy” value was -0.17 kcal/mol.

With TAGAACACGTGGAAGG, the “relative binding free energy” value turned out to be 0.06 kcal/mol.

For AGGTGCACGTGCGTTT, the “relative binding free energy” value is -0.15 kcal/mol.

Consider CTAGTCACGTGTTGTC, for which the “relative binding free energy” value is 0.1 kcal/mol.

In the case of GATTGCACGTGGGCGA, the “relative binding free energy” value was -0.01 kcal/mol.

As to AGTATCACGTGGGTTG, the “relative binding free energy” value was -0.12 kcal/mol.

ATGAGCACGTGATTGG: the “relative binding free energy” value came to 0.1 kcal/mol.

For the sequence GGGAGCACGTGGCTGT, the “relative binding free energy” value is -0.1 kcal/mol.

As for GGGGACACGTGGTCTG, the “relative binding free energy” value was -0.02 kcal/mol.

With GGTAGCACGTGAGGAG, the “relative binding free energy” value amounted to 0.08 kcal/mol.

For the sequence AGATTCACGTGTTTCT, the “relative binding free energy” value was 0.24 kcal/mol.
